This is an account of results in paper PMC4336329 (PLoS ONE, 2015).

Hit rate of the full screen: of about 310,000 compounds, about 2,200 (0.71%) showed an effect of 50% or more. The effect is printed as a negative number. This is one part of the list.

The target in the assay is human ether-à-go-go-related gene (hERG) potassium channel (human, UniProt Q12809). The assay can be described thus: primary screen, population patch clamp on CHO cells stably expressing hERG.
Sequence of human ether-à-go-go-related gene (hERG) potassium channel (Q12809 whole entry, looked up): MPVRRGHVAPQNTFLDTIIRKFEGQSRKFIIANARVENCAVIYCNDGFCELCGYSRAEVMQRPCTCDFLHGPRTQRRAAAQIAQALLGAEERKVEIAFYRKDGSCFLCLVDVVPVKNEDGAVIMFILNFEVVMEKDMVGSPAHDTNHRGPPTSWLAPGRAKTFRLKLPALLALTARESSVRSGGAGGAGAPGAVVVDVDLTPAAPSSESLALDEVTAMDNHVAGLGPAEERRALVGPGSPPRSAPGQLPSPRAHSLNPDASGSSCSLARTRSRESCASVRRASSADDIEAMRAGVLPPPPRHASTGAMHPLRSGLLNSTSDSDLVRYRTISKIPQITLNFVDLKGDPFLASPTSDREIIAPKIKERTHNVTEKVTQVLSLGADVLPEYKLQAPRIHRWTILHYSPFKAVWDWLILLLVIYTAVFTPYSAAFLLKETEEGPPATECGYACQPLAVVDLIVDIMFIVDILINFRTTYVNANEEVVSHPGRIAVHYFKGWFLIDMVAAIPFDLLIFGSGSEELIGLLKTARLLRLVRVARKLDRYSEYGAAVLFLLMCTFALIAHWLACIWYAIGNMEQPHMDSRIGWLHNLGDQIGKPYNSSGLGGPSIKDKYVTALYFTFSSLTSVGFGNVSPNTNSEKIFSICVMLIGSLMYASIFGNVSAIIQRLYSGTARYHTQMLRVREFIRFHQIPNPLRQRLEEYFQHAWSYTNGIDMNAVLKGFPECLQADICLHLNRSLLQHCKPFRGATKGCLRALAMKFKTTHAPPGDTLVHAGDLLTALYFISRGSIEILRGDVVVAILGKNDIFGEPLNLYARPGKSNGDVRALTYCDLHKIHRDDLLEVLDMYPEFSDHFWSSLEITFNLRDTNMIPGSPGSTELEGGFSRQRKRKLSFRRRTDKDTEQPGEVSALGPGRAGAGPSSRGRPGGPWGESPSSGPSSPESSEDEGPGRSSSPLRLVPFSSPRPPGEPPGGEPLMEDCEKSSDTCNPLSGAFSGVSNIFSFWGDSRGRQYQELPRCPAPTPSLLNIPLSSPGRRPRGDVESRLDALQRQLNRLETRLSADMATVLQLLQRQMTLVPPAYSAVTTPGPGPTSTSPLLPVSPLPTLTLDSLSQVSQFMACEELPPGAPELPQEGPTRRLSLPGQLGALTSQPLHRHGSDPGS
Regarding `CCOc1ccc(N(CC(=O)Nc2cccc(OC)c2)S(C)(=O)=O)cc1`, the “hERG current change (%, negative = inhibition) at 1uM” value was determined as 9.02%.
With `O=C(O)c1ccccc1P(=O)(c1ccccc1)c1ccccc1`, the “hERG current change (%, negative = inhibition) at 1uM” value is 16.1%.
On to `COc1ccc(N2CCN(C(=O)c3ccc(CNS(=O)(=O)c4cc(C)ccc4C)cc3)CC2)cc1`, for which the “hERG current change (%, negative = inhibition) at 1uM” value was determined as 0.552%.
Then `COc1ccc(-c2cc(OC(=O)c3ccc(F)cc3)c3c(C)oc(C)c3c(=O)c2)cc1`, with 11.3%.
Regarding `Cc1onc(-c2c(F)cccc2Cl)c1C(=O)NCCCN1CCOCC1`, the “hERG current change (%, negative = inhibition) at 1uM” value is reported as -3.84%.
`O=C(CCCCC(=O)NCCc1ccccc1)NCCc1ccccc1`: the “hERG current change (%, negative = inhibition) at 1uM” value was 13.6%.
On to `NS(=O)(=O)c1ccc(CCNC(=O)NC23CC4CC(CC(C4)C2)C3)cc1`, for which the “hERG current change (%, negative = inhibition) at 1uM” value was found to be 6.76%.
For the molecule `CCNC(=S)Nc1ccc(-c2nc3ccccc3[nH]2)cc1`, the “hERG current change (%, negative = inhibition) at 1uM” value is 4.42%.
For the molecule `COc1ccc(OC)c(Nc2nc(-c3cccs3)cs2)c1`, the “hERG current change (%, negative = inhibition) at 1uM” value stood at 12.3%.
Regarding `CCSC(=S)Nc1c(C)n(C)n(-c2ccccc2)c1=O`, the “hERG current change (%, negative = inhibition) at 1uM” value is listed as 13%.
In the case of `COc1ccc(OCc2nn3c(-c4ccco4)nnc3s2)cc1` it was -11.1%; in that of `CCNC(=O)C(C)Sc1ccc(Cl)cc1` (stereo not drawn), 5.45%.
As to `N/C(=N\c1nc(CSc2nc3ccccc3s2)cc(=O)[nH]1)Nc1ccc(F)cc1`, the “hERG current change (%, negative = inhibition) at 1uM” value was found to be 10.8%.
Then `Cc1ccnc(N2C(=O)OC(C)(C)C2(C)O)c1` (stereo not drawn), with -0.922%; and `COc1ccc(NC(=O)NC2CCCc3ccccc32)cc1OC` (stereo not drawn), with 11.1%; and `O=C1CCc2cc(S(=O)(=O)N3CCC(C(=O)NCc4ccccn4)CC3)ccc2N1`, with 15.8%.
Take `CCCS(=O)(=O)c1c(S(=O)(=O)CCC)c2c3ccccc3ccn2c1C(N)=O`: the “hERG current change (%, negative = inhibition) at 1uM” value was 2.06%.
As for `Cc1ccc2c(c1)sc1ncc(NC(=O)c3ccc(F)cc3)c(=O)n12`, the “hERG current change (%, negative = inhibition) at 1uM” value worked out at 11.7%.
In the case of `NC(=NCCc1c[nH]c2ccccc12)NS(=O)(=O)c1ccc2ccccc2c1` it was 8.94%.
Take `COCc1cc(=O)[nH]c(SCC(=O)N2CCOCC2)n1`: the “hERG current change (%, negative = inhibition) at 1uM” value was 14.4%.
Take `COc1cccc(CN2CCNC(=O)C2CC(=O)NCCN2CCOCC2)c1OC` (stereo not drawn): the “hERG current change (%, negative = inhibition) at 1uM” value is 7.74%.
In the case of `COc1ccc(C(=O)N=c2sc3c(C)ccc(OC)c3n2C)cc1` it was 9.31%.
Then `CO/N=C(\C)c1ncc(C(F)(F)F)cc1N1CCOCC1`, with 19%; and `O=C(Nc1ccc(Cl)c(C(F)(F)F)c1)C1CCCN(S(=O)(=O)c2cnc[nH]2)C1` (stereo not drawn), with -11.1%; and `Cc1cc(NC(=O)c2noc3c2CCCC3)n(-c2ccccc2)n1`, with -13.5%.
Regarding `O=C(Nc1cccnc1)c1ccc(Cl)cc1[N+](=O)[O-]`, the “hERG current change (%, negative = inhibition) at 1uM” value is 10.1%.
Regarding `O=C(Oc1c(-c2ccco2)oc2ccccc2c1=O)c1cccnc1`, the “hERG current change (%, negative = inhibition) at 1uM” value was found to be 16.2%.
Consider `COc1cc2c(cc1NC(=O)CSc1ccc(C)cc1)oc1ccccc12`, for which the “hERG current change (%, negative = inhibition) at 1uM” value was -0.95%.
As for `Cc1ccc(C)c(C(C)NC(=O)CC#N)c1` (stereo not drawn), the “hERG current change (%, negative = inhibition) at 1uM” value was 11.3%.
For the molecule `COc1ccc(Cc2nnc(SCC(=O)Nc3ccc(N4CCOCC4)cc3)o2)cc1`, the “hERG current change (%, negative = inhibition) at 1uM” value is 14.1%.
Then `CCOC(=O)C1CCN(C(=O)COC(=O)c2ccccc2C(=O)c2ccc(Cl)cc2)CC1`, with 0.212%; and `Cc1csc(=NC(=O)c2ccccc2)n1Cc1ccco1`, with 5.65%; and `Nc1nc2ncc(CNc3ccc(C(=O)N[C@@H](CCC(=O)O)C(=O)O)cc3)nc2c(=O)[nH]1`, with 10.7%.
Turning to `CCc1nc(C)cc(N)c1OCc1ccccc1.Cl.O`, the “hERG current change (%, negative = inhibition) at 1uM” value is listed as -13.8%.
On to `CCN(Cc1ccccc1)S(=O)(=O)c1c(C(=O)N2CCCC2)c(C)n(C)c1C`, for which the “hERG current change (%, negative = inhibition) at 1uM” value is listed as -4.63%.
As to `O=C(COc1ccc(-c2ccccc2)cc1)N1CCN(C(=O)c2cccs2)CC1`, the “hERG current change (%, negative = inhibition) at 1uM” value is listed as -8.55%.
For the molecule `CC(/C=N/NC(=O)c1c(Br)cnn1C)=C\c1ccccc1`, the “hERG current change (%, negative = inhibition) at 1uM” value amounted to 3.59%.
For `COc1cc(C(=O)NC(=S)N(C)Cc2ccccc2)cc(OC)c1OC`, the “hERG current change (%, negative = inhibition) at 1uM” value came to 6.94%.
Consider `C/C(=N/OC(=O)c1c(F)cccc1F)c1nccs1`, for which the “hERG current change (%, negative = inhibition) at 1uM” value is 7.45%.
As for `NCCc1nnc(SCC(=O)Nc2ccc(Br)cc2)o1`, the “hERG current change (%, negative = inhibition) at 1uM” value amounted to 11.4%.
`Cc1cccc(OCCCn2c(=O)oc3ccc(C)cc32)c1`: the “hERG current change (%, negative = inhibition) at 1uM” value came to 17.9%.
In the case of `O=c1[nH]c2cccc(Cl)c2n(CCNc2ncc(C(F)(F)F)cc2Cl)c1=O` it was 4.52%; in that of `COc1ccc(NC(=O)Cn2c(-c3ccc(OC)cc3)cn(-c3ccc(C)cc3)c2=O)cc1`, 14.7%.
As to `O=C(c1ccoc1)N1CCC2(CC1)Oc1ccc(Cl)cc1C(=O)C21CC(c2ccccc2)=NO1` (stereo not drawn), the “hERG current change (%, negative = inhibition) at 1uM” value came out at 10%.
As for `Cc1ccc(-c2cc(-c3ccc4c(c3)OCO4)c(C#N)c(N)n2)o1`, the “hERG current change (%, negative = inhibition) at 1uM” value is recorded as 4.17%.
